Measured values published in PubChem BioAssay AID1508624 (National Center for Advancing Translational Sciences (NCATS), 2021).
“And” between values parts separate entries of the source, which are not always exact repeats. Equal entries are not always repeated. Hit rate of the full screen: of about 48,000 compounds, about 120 (0.25%) were called active. Roughly 4% stayed inconclusive and do not appear here. The call rests on the fitted dose curve; in most records, active means well fitted activation curve with a large enough effect; inconclusive means small, poorly fitted or top-dose-only effect, or another doubt; inactive means no such curve, though single readings can be large or run the other way. This is one part of the list.

Assay: Primary qHTS for Identification of Small Molecule Activators of Huntingtin-Antisense Promoter Activity; further: nearly all actives have a fitted effect of over 55% in size
Settings: HEK293 HTT-AS promoter firefly luciferase reporter, 24 h; at 57.5 µM (top of the series) unless noted
Procedure, shortened: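 Firefly luciferase readout (Dual-Glo, 10 min RT) after 24 h, 37 °C compound exposure (final up to 57.5 uM) of HEK293 reporter cells cultured 24 h beforehand; PTC124 at 50 uM final as control inhibitor; activity scaled vehicle 0%, zero RLU -100%.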

Row | Structure (SMILES) | activity change, positive = activation
1 | CC1=C2[C@H]3OC(=O)[C@@H](C)[C@@H]3CC[C@@]2(C)C=CC1=O | inactive: -13.6%
2 | C1CN2CCC1CC2 | inactive: -1.56% [at 57.5 µM, percent change from vehicle, -100% = no light]
3 | Cc1ccccc1OCC(=O)N1CCN(CCc2ccccn2)CC1 | inactive: -7.44%
4 | O=[N+]([O-])c1c2ccccc2cc2ccccc12 | inactive: 13.9% [at 116 µM]
5 | O=C(NC(=O)c1c(F)cccc1F)Nc1cc(Cl)c(OC(F)(F)C(F)C(F)(F)F)cc1Cl (stereo not given) | inactive: -14.2%
6 | CNCC(=O)c1ccc(O)c(O)c1 | inactive: -6.22%
7 | Cc1ccccc1-n1c(/C=C/c2c(C)[nH]c3ccccc23)nc2ccccc2c1=O | inactive: -45%
8 | COc1ccc(OCC(=O)N2CCN(CCc3ccncc3)CC2)cc1 | inactive: -13.7% [at 57.5 µM, percent change from vehicle, -100% = no light]
9 | Cc1ccccc1-n1nc(C)c2c1NC(=O)CSC2c1ccc(Cl)cc1 (stereo not given) | inactive: -24.1%
10 | CC(C)N(CCNC(=O)CN1CCCC1=O)C(C)C | inactive: -8.25%
11 | NC1=NC(=O)N2CC12 (stereo not given) | inactive: -5.22%
12 | Cc1c(C(c2ccc(Br)cc2)c2c(O)c3ccccc3oc2=O)c(=O)n(-c2ccccc2)n1C (stereo not given) | inactive: -30.2%
13 | COC1=CC(C)=C[C@@H](C)[C@@H](O)[C@@H](C)CC(C)=CC=C[C@H](OC)[C@H]([C@@H](C)[C@@H](O)[C@H](C)[C@@]2(O)C[C@@H](O)[C@H](C)[C@@H](C(C)C)O2)OC1=O | inactive: -27.8%
14 | Cc1ccc(Cn2cccc(C(=O)Nc3cc(C)on3)c2=O)cc1 | inactive: -2.62% [at 57.5 µM, percent change from vehicle, -100% = no light]
15 | C[C@]12CC[C@H]3[C@@H](CC[C@@]45O[C@H]4C(O)=C(C#N)C[C@]35C)[C@H]1CC[C@H]2O | inactive: -10.2%
16 | CC(C)(C)NCC(O)c1cc(Cl)c(N)c(Cl)c1 (stereo not given) | inactive: 0.63%
17 | Fc1ccc(C(OCCN2CCN(CCCc3ccccc3)CC2)c2ccc(F)cc2)cc1 | inactive: -27.4% and inactive: -42.9%
18 | COC(=O)C1=CCCN(C)C1 | inactive: -10.1% and inactive: -5.85%
19 | CN(C)c1ccc(NC(=O)c2sc3nc4c(cc3c2N)N2CCC4CC2)cc1 | inactive: -13.4% [at 57.5 µM, percent change from vehicle, -100% = no light]
20 | C=C(C)[C@H]1Cc2c(ccc3c2O[C@@H]2COc4cc(OC)c(OC)cc4[C@@H]2C3=O)O1 | inactive: -71.5%
